Some of the results follow. The main result of the screen is listed elsewhere. These columns were measured beside it and carry no call.
Biological target: GTPase KRas (Homo sapiens) (UniProt P01116)
Assay: Fragment capture on engineered cysteines, share of protein labelled (AID 2202238)
Set-up: protein at 5 µM with 500 µM competing thiol for 1.5 h
Conditions: KRAS G12D cysteine mutants, disulfide tethering, MALDI-TOF labeling, stronger effect = higher value, fragment at 500 µM
[1] = measured here: G75C mutant labeling
[2] = measured here: H94C mutant labeling
[3] = measured here: I36C mutant labeling
[4] = measured here: L120C mutant labeling
[5] = measured here: M67C mutant labeling
[6] = measured here: M72C mutant labeling
[7] = measured here: N86C mutant labeling
[8] = measured here: P121C mutant labeling
[9] = measured here: S122C mutant labeling
[10] = measured here: S136C mutant labeling
[11] = measured here: G60C mutant labeling
[12] = measured here: N26C mutant labeling

Chain of UniProt P01116 (P01116 whole entry, looked up, the tested form may be a part): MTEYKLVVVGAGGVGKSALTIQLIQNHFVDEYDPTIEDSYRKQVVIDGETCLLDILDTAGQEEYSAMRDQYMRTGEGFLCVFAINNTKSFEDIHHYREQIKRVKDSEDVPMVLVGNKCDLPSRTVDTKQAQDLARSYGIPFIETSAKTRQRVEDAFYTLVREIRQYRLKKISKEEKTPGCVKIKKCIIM

SMILES | percent labeling [1] [%] | percent labeling [2] [%] | percent labeling [3] [%] | percent labeling [4] [%] | percent labeling [5] [%] | percent labeling [6] [%] | percent labeling [7] [%] | percent labeling [8] [%] | percent labeling [9] [%] | percent labeling [10] [%] | percent labeling [11] [%] | percent labeling [12] [%]
O=C(CCS)NCc1nccn1CC(F)(F)F | 9.7 | 23.1 | 31.7 | 22.9 | 25.4 | 17.4 | 24.5 | 25.9 | 24.5 | 40.4 |  | 
Cc1ccnc(-c2n[nH]c(C(C)NC(=O)CCS)n2)c1 (centres undefined) | 10.3 | 19.5 | 26.7 | 36.1 | 37.8 | 19.5 | 14.2 | 27.4 | 33 | 43 |  | 
O=C(COc1ccc2ccccc2c1)NCCS | 7.6 | 10.3 | 8.7 | 12.6 | 8.2 | 29.4 | 2.7 | 8.2 | 4.9 | 10.5 | 13.2 | 20.7
O=C(CCS)NC1(c2ccc(Br)s2)CC1 | 18.4 | 52.3 | 34 | 30.3 | 35 | 37.8 | 26.8 | 30.5 | 23.8 | 51.8 |  | 
COc1ccc2ccccc2c1CNC(=O)CCS | 12.9 | 30 | 24.4 | 17.8 | 41.8 | 39.3 | 22.7 | 19.2 | 17.8 | 41.8 |  | 
CC(=O)Nc1ccc(-c2csc(NC(=O)CCS)n2)cc1 | 9.3 | 20.4 | 17.5 | 7.9 | 11 | 29.3 | 4.3 | 7.5 | 5.2 | 19.9 |  | 
O=C(NCCS)c1ccc(NC(=O)c2ccc(=O)[nH]c2)cc1 | 5.3 | 7.4 | 8.2 | 6 | 7.7 | 22.5 | 9.6 | 6.4 | 4.9 | 8.2 | 10.5 | 23.1
CN(CC(=O)NCc1cccs1)C(=O)CCS | 10.1 | 34.6 | 33.2 | 35.5 | 36.5 | 29.7 | 24.4 | 33.3 | 35 | 51.1 |  | 
O=C(CCS)NCCc1cn2ccccc2n1 | 16.7 | 21.5 | 28.1 | 23 | 38.1 | 21.3 | 12 | 30.7 | 28.5 | 48.8 |  | 
O=C(CCS)NCc1cc(Cl)c2c(c1)OCO2 | 16.5 | 34.7 | 37.6 | 30.5 | 36 | 48.1 | 20.1 | 29.1 | 29.9 | 47.9 |  | 
Cn1cc(-c2nn(C)cc2C(=O)NCCS)cn1 | 14.3 | 34.7 | 32.9 | 33.4 | 38.6 | 28.2 | 17.7 | 33 | 25.4 | 49.7 | 29.3 | 44
Cn1c(C(=O)NCCS)cc2cc(C(F)(F)F)ccc21 | 15.4 | 16.7 | 10 | 13.9 | 10.3 | 29.2 | 13.2 | 11.3 | 8.2 | 11.8 | 27.9 | 29
O=C(NCCS)c1ccc(N2CCCC2)c(F)c1 | 15.4 | 11 | 8.2 | 13.7 | 8.5 | 67.7 | 8.9 | 10.2 | 8.8 | 19.4 | 17.4 | 34.8
Cc1ccc(OCc2ccc(C(=O)NCCS)o2)cc1 | 14.5 | 18 | 10.8 | 22.2 | 13.1 | 33.5 | 12.9 | 14.7 | 11.4 | 18.1 | 18.5 | 26.7
Cc1cnc(C(=O)NCCS)cn1 | 23 | 30.4 | 26 | 35.6 | 29.3 | 29.4 | 26.3 | 28.4 | 30.2 | 38.2 | 31.8 | 35.1
COc1ccc(Cl)cc1C(=O)N1CCCC1C(=O)NCCS (centres undefined) | 17.2 | 38.5 | 36.5 | 41.8 | 33.8 | 36.3 | 35.7 | 32.6 | 28.4 | 56 | 42.9 | 36.1
COCCn1c(CCN(C)C(=O)CCS)nc2ccccc21 | 12.7 | 40.7 | 42.7 | 31.4 | 53.7 | 19.3 | 23.4 | 31.8 | 33.1 | 67.4 |  | 
O=C(NCCS)C1CCCC2CC(O)CCC21 (centres undefined) | 14.2 | 35.9 | 21.6 | 32.6 | 30.6 | 19.6 | 29 | 30.4 | 31.1 | 48.7 | 33 | 35.4
CCC(=O)Nc1ccc(OC)cc1NC(=O)CCS | 12.4 | 35.4 | 31.4 | 30.6 | 33.8 | 23.5 | 22.1 | 34.3 | 30 | 50.1 |  | 
O=C(NCCS)C1CCCN1Cc1ccc(Cl)cc1 (centres undefined) | 26.8 | 42 | 21.6 | 22.6 | 32.8 | 45.5 | 24 | 22.8 | 18.7 | 33.8 | 52.6 | 45.3
O=C(CNC(=O)COc1ccccc1)NCCS | 15.5 | 31.2 | 24.5 | 46.9 | 36.4 | 24.7 | 27.3 | 35.6 | 33.3 | 39.6 | 31 | 41.8
CN(C(=O)CCS)C1CCC(NC(=O)OC(C)(C)C)CC1 (centres undefined) | 20 | 43.8 | 33.7 | 29 | 33.9 | 24.2 | 32.9 | 35.5 | 37.7 | 54.7 |  | 
O=C(NCCS)c1ccn(-c2ncc(C(F)(F)F)cc2Cl)n1 | 16.9 | 11.4 | 7.9 | 23.2 | 8.1 | 27.1 | 8.6 | 7.2 | 7.3 | 20.2 | 17.9 | 24.4

Source: PubChem BioAssay AID2202238 (Ras Initiative Chemistry Research Team, Frederick National …, 2025)
